The values below come from article PMC4336329 (PLoS ONE, 2015).

In all, about 310,000 compounds went through this assay and about 2,200 (0.71%) showed an effect of 50% or more. Effects have a minus sign here. This is one part of the list.

Sequence of human ether-à-go-go-related gene (hERG) potassium channel (Q12809 whole entry, looked up): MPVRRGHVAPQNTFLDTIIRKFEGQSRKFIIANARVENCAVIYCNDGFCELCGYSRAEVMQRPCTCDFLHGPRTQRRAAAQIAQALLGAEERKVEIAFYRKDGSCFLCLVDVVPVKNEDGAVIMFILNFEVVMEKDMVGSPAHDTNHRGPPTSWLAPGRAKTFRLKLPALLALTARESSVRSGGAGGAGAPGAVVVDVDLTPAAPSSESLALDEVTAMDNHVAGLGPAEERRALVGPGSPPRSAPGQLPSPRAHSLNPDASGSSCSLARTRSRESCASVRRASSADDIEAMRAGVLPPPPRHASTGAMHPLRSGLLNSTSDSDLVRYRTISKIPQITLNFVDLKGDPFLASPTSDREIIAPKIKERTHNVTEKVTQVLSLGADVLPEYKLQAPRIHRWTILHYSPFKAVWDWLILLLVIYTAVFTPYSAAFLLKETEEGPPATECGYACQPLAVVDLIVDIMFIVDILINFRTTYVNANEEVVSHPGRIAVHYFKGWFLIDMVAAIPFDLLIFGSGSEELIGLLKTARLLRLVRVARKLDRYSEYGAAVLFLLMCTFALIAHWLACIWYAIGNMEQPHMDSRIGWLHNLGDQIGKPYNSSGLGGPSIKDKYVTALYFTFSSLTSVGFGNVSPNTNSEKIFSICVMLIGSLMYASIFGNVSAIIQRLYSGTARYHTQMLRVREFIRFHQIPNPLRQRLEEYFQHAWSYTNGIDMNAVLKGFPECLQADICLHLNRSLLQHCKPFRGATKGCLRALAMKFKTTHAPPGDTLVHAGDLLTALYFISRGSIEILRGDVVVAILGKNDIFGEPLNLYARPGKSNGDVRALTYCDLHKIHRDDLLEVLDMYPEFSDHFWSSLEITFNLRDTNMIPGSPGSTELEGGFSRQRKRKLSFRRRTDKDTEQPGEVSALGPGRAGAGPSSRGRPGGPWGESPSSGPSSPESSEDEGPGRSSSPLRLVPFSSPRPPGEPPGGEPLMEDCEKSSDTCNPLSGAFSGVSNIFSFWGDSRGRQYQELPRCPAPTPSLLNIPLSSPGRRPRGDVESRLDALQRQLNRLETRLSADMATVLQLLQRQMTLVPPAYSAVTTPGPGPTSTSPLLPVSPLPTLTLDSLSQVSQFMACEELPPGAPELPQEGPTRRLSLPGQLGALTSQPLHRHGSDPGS

This assay addresses human ether-à-go-go-related gene (hERG) potassium channel (human, UniProt Q12809). As to the kind of experiment: primary screen, population patch clamp on CHO cells stably expressing hERG.
Regarding `COc1cc(-c2nc3cnccc3n2C)cc(OC)c1OC`, the “hERG current change (%, negative = inhibition) at 1uM” value is 2.44%.
Under `Cc1cc(C(=O)N2CCCc3ccccc32)no1` stands -1.99%; under `COc1ccc(C2N(c3ccc(C)cc3)CCN2c2ccc(C)cc2)cc1O`, 13.4%.
For `CC(C)(C)c1ccc(S(=O)(=O)Nc2cccnc2)cc1`, the “hERG current change (%, negative = inhibition) at 1uM” value is reported as -3.24%.
Under `Cc1cccc2sc(N(CCCN(C)C)C(=O)c3ccc(Cl)s3)nc12.Cl` stands 0.715%; under `COc1cc(C(=O)OCC(C)=O)cc(NC(=O)c2ccco2)c1OC`, 10.2%.
Regarding `Cc1nc(N2CCN(C(=O)c3cnccn3)CC2)c2c3c(sc2n1)CC(C(C)(C)C)CC3` (stereo not drawn), the “hERG current change (%, negative = inhibition) at 1uM” value was 12.2%.
Consider `O=C(NC1CCCCC1)c1ccc([N+](=O)[O-])o1`, for which the “hERG current change (%, negative = inhibition) at 1uM” value worked out at 13.6%.
Turning to `CCn1c(COc2ccc(=O)n(-c3ccccc3)n2)nnc1SCc1ccccc1`, the “hERG current change (%, negative = inhibition) at 1uM” value is given as -1.03%.
In the case of `CSc1ccc(C(=O)C2CCCN(C(=O)c3ccc4c(c3)no[n+]4[O-])C2)cc1` (stereo not drawn), the “hERG current change (%, negative = inhibition) at 1uM” value was 2.57%.
With `CCCc1c(C(=O)N/N=C/c2ccc(C)s2)nnn1-c1nonc1N`, the “hERG current change (%, negative = inhibition) at 1uM” value was found to be 16.5%.
Consider `O=C(NC(=S)N1CCOCC1)c1cn(-c2ccccc2)nc1-c1ccc(F)cc1`, for which the “hERG current change (%, negative = inhibition) at 1uM” value is listed as 9.97%.
Under `O=C(O)CSC(C(=O)Nc1ccc(C(F)(F)F)cc1)c1ccccc1` (stereo not drawn) stands 2.86%; under `O=c1[nH]c(N2CCc3ccccc3C2)nc2c1CCC2`, 7.51%.
Turning to `CCC(C(=O)OC(C)C(=O)Nc1ccc(Cl)cn1)c1ccccc1` (stereo not drawn), the “hERG current change (%, negative = inhibition) at 1uM” value came out at 8.79%.
On to `CC(=O)c1ccc(NC(=O)C2CCN(S(=O)(=O)c3cccnc3)CC2)cc1`, for which the “hERG current change (%, negative = inhibition) at 1uM” value is reported as 9.88%.
Under `Cl.OC(COc1cccc2ccccc12)CN1CCN(c2ccccn2)CC1` (stereo not drawn) stands 4.49%; under `COCCN1C=C(C(=O)OC)C(c2ccccc2C(F)(F)F)C(C(=O)OC)=C1`, -2.17%.
`O=C(O)c1ccc(/C=N/Nc2nc(N3CCCCC3)nc(N3CCCCC3)n2)cc1`: the “hERG current change (%, negative = inhibition) at 1uM” value amounted to 8.75%.
As for `CCOCCc1nnc(NC(=O)c2ccc(OC)c(OC)c2)s1`, the “hERG current change (%, negative = inhibition) at 1uM” value was determined as 2.98%.
Consider `COc1ccc(/C=N/NC(=O)c2nnn(-c3nonc3N)c2-c2cccs2)cc1OC`, for which the “hERG current change (%, negative = inhibition) at 1uM” value amounted to 4.03%.
For the compound `CCOc1cccc2sc(=NC(=O)c3ccc(S(=O)(=O)N4CCOCC4)cc3)n(C)c12`, the “hERG current change (%, negative = inhibition) at 1uM” value turned out to be 5.51%.
With `CCn1c(=O)c2c(nc(SCC(=O)NC3CCCC3)n2C)n(C)c1=O`, the “hERG current change (%, negative = inhibition) at 1uM” value amounted to 10.7%.
On to `Cc1ccc2c(c1)nnn2C1CCN(CC(=O)c2ccc(Cl)cc2)CC1`, for which the “hERG current change (%, negative = inhibition) at 1uM” value is -6.32%.
